# Results reported in PubChem BioAssay AID1508642 (National Center for Advancing Translational Sciences (NCATS), 2021).
# Out of some 43,000 compounds screened, about 200 (0.47%) were called active. About 12% were inconclusive and are not listed. Calls come from the whole dose curve; as a rule, active = well fitted cell-killing curve with a large enough effect; inconclusive = small, poorly fitted or top-dose-only effect, or effect the other way; inactive = flat fitted curve, though single readings scatter. The list shows a part of the results.
# Assay: Cell viability qHTS assay in S16 Pmp22-F2sN cells; note: nearly all actives have a fitted effect of over 65% in size
# Details: S16 Pmp22-F2sN Schwann cells (luciferase reporters placed in the Pmp22 gene) viability, CellTiter-Glo, 24 h; series mostly up to 57.5 µM; activity change, negative = cytotoxicity: at the top concentration
# Summary of the method: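 Luminescence from CellTiter-Glo, read by CCD camera after a 15 min room-temperature incubation, served as the viability signal. Reporter Schwann cells (S16 Pmp22-F2sN) had been treated with pin-transferred compounds for 24 h at 37C.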
# % is set by controls: 0 for no effect and ±100 for the full control effect.
row,Structure (SMILES),"activity change, negative = cytotoxicity"
1,CCN(CC)C(=O)c1sc2c(c1C)c(=O)n(Cc1ccccc1)c(=O)n2Cc1cc(C)ccc1C,inactive: 4.41%
2,COc1ccc(C)cc1NC(=O)c1sc2nc(-c3ccc(F)cc3)cn2c1C,inactive: 1.36%
3,O=C(Nc1ccccc1C(F)(F)F)c1cc2nc(-c3ccccc3)cc(-c3ccccc3)n2n1,inactive: 19.2%
4,COc1ccccc1NC(=O)c1sc(-c2ccc(Cl)cc2)cc1N,inactive: -2.43%
5,CCc1ccc2c(c1)NC(c1ccc(F)cc1)=NC(c1ccncc1)=N2,inactive: -13.2%
6,Cc1cc(C)c2oc(C(=O)Nc3ccc(S(=O)(=O)Nc4ncccn4)cc3)cc(=O)c2c1,inactive: -2.48%
7,O=C(CCCn1ncn2c(cc3occc32)c1=O)NCc1ccccc1F,inactive: -2.11%
8,Cc1cc2c(cc1S(=O)(=O)C(C)CC(=O)NC1CCC(C)CC1)OCC(=O)N2 (stereo not drawn),inactive: -3.94%
9,COc1ccc2c(CNC3CCCCCC3)c(C(=O)O)n(Cc3ccc(C)cc3)c2c1,inactive: 8.76%
10,COc1ccc(CNC(=O)CN2C(=O)COc3ccc(S(=O)(=O)N4CCCCC4)cc32)cc1,inactive: 10.4%
11,Cc1ccc(-c2noc(-c3cccnc3NCc3ccco3)n2)cc1,inactive: 20.7%
12,Cc1cc(F)ccc1NC(=O)Cn1nc(N2CCN(c3ccccc3)CC2)ccc1=O,inactive: 12.3%
13,CCc1nnc(SCc2cccc(Cl)c2)c2cc3sccc3n12,inactive: -24.1%
14,Cc1cc(C)c(NC(=O)CSc2nc3nccnc3c(=O)n2CCc2c[nH]c3ccccc23)c(C)c1,inactive: -2.05%
15,CCOc1cccc(C(=O)Nc2ccc3oc(-c4ccncc4)nc3c2)c1,inactive: 15.7%
16,COc1ccc(-c2cc(OC(=O)c3ccccc3Cl)c3c(C)oc(C)c3c(=O)c2)cc1OC,inactive: -20.8%
17,CCCSc1oc(-c2cccs2)nc1S(=O)(=O)c1ccc(C)cc1,inactive: 3.33%
18,O=C(Nc1cccc(C(=O)OCc2cc(=O)n3c4c(sc3n2)CCCC4)c1)c1ccc(Cl)cc1,inactive: -39%
19,COc1ccc(NC(=O)Cn2c(=O)n(CCCCCC(=O)NCc3ccc4c(c3)OCO4)c(=O)c3sccc32)cc1Cl,inactive: 5.1%
20,Cc1ccc(Cn2c(C)c3cnn(CC(=O)O)c(=O)c3c2C)cc1,inactive: 13.4%
21,O=C(Cn1cc(SCc2ccc(F)cc2)c2ccccc21)N1CCCCC1,inactive: -11.9%
22,CCOc1ccc(CNC(=O)CCCn2c(=O)c3cccn3c3ccccc32)cc1,inactive: -17.7%
23,COc1ccc(-c2nc(CN3CCC(C(=O)NCc4ccc(C)cc4)CC3)c(C)o2)cc1OC,inactive: 6.36%
24,CC(=O)N1CCCc2cc(S(=O)(=O)N3CCC(C(=O)Nc4c(C)cccc4C)CC3)ccc21,inactive: -1.27%

row,Structure (SMILES),"activity change, negative = cytotoxicity"
1,COc1ccc(CCNC(=O)C(=O)NCC(c2cccs2)S(=O)(=O)c2cccs2)cc1 (stereo not drawn),inactive: -2.68%
2,CCOc1ccccc1Nc1nc2ccccc2nc1NS(=O)(=O)c1ccc(Cl)cc1,inactive: 6.33%
3,COc1ccc(C(=O)n2nc(-c3cccnc3)nc2NCc2ccccc2)cc1OC,inactive: -11.1%
4,Cc1ccc(Sc2ccc(N3CCCC(C(=O)Nc4ccc(F)cc4)C3)nn2)cc1 (stereo not drawn),inactive: 2.04%
5,CCN(CC)C(=O)CSc1nc2cc3c(cc2c(=O)n1CCCC(=O)NCc1ccc2c(c1)OCO2)OCO3,inactive: -8.46%
6,COc1ccc(-c2cn3c(n2)sc2cc(C(=O)NCCCc4ccccc4)ccc23)cc1,inactive: 12.2%
7,O=C(Cn1nc(N2CCN(c3ccccc3)CC2)ccc1=O)NCc1ccccc1F,inactive: 18.8%
8,COc1cccc2c1cc1c(=O)n(CC(=O)N3CCN(c4ccc(F)cc4)CC3)nc(C)n12,inactive: 4.84%
9,COc1ccc2nc(SCC(O)c3cccc(Br)c3)[nH]c2c1 (stereo not drawn),inactive: -1.39%
10,CCCS(=O)(=O)c1nc(S(=O)(=O)c2ccc(C)cc2)c(NCCCOC(C)C)s1,inactive: -12.4%
11,Cn1c(=O)c2c(nc(NCCc3ccccc3)n2Cc2ccccc2Br)n(C)c1=O,inactive: 9.8%
12,CCOc1ccc(C(=O)N(Cc2nc(-c3cccc(C)c3)no2)C(C)C)cc1,inactive: 0.362%
13,CCOc1ccc(NC(=O)c2cn(C3CCCCC3)c(=O)c3c2c2ccccc2n3C)cc1,inactive: -0.0338%
14,Cc1cccc(C(=O)Nc2ccccc2OCc2cc(=O)n3ccccc3n2)c1,inactive: 15.7%
15,Cc1ccc(-c2nnc(SCC(=O)NC(C)(C)C)nc2-c2ccc(C)cc2)cc1,inactive: 1.53%
16,Cc1nnsc1C(=O)Oc1ccc(C#N)cc1,inactive: -1.31%
17,O=C(CN1C(=O)C2(SCC(=O)N2c2cccc(F)c2)c2ccccc21)NCc1ccccc1Cl (stereo not drawn),inactive: -17.6%
18,Clc1ccc(CN2CCc3nc(N4CCN(c5ccccn5)CC4)ncc3C2)cc1,inactive: 16.9%
19,CCOC(=O)c1ccc(Oc2nc(C)nc3c2oc2ccccc23)cc1,inactive: 6.41%
20,CC(C)(C)c1ccc(S(=O)(=O)c2cnc(SCC(=O)Nc3ccc4c(c3)OCCO4)[nH]c2=O)cc1,inactive: -2.33%
21,CC(C)CC(=O)NCC(c1ccc2c(c1)OCO2)N1CCN(c2ccc(F)cc2)CC1 (stereo not drawn),inactive: 0.0038%
22,Cc1ccc(-n2ncc(C(=O)NCc3ccccn3)c2C2CCN(C(=O)OC(C)(C)C)CC2)cc1C,inactive: -24.1%
23,Cc1ccc(NC(=O)CSc2nc3ccccc3nc2Cc2ccccc2)c(Cl)c1,inactive: 2.25%
24,Cc1nnc2c3ccccc3nc(Nc3ccccc3C(=O)O)n12,inactive: -3.16%

row,Structure (SMILES),"activity change, negative = cytotoxicity"
1,CCn1ccc2cc(S(=O)(=O)N3CCC(C(=O)NCC(C)c4ccccc4)CC3)ccc21 (stereo not drawn),inactive: -1.34%
2,CCOc1ccc(S(=O)(=O)NCc2ccc3c(c2)CCN3C(=O)c2ccc(C)cc2)cc1,inactive: -10%
3,O=C(COc1ccc(Cl)cc1)Nc1ccc2nc(SCC(=O)N3CCOCC3)sc2c1,inactive: 8.44%
4,Cc1ccc(CN2c3ccccc3-c3nc(SCC(=O)NCCc4ccccc4)ncc3S2(=O)=O)cc1,inactive: 2.17%
5,CCN(CC)CCNC(=O)c1ccc(-c2nc(CN3CCc4ccccc43)c(C)o2)cc1,inactive: -22.3%
6,CCOC(=O)c1cccc(NC(=O)CSc2cc(=O)n(C)c3ccccc23)c1,inactive: -3.05%
7,CC(=O)N1CCCc2cc(S(=O)(=O)NCc3ccccc3Cl)ccc21,inactive: -26.3%
8,CCN1CCC(N(Cc2ccc3c(c2)OCO3)C(=O)Nc2cccc(C)c2C)CC1,inactive: 0.908%
9,COc1ccc(Nc2ncc3c(n2)CCN(Cc2cccc(F)c2F)C3)c(OC)c1,inactive: 3.22%
10,Cc1ccc(S(=O)(=O)c2nnn3c2nc(N2CCCC(C)C2)c2cc(Cl)ccc23)cc1C (stereo not drawn),inactive: -2.35%
11,Oc1c(C(c2ccccc2Cl)N2CCC(O)CC2)sc2nc(-c3ccco3)nn12 (stereo not drawn),inactive: 11.6%
12,CCN(C(=O)Cn1cc(S(=O)(=O)N2CCN(c3ccccc3F)CC2)c2ccccc2c1=O)c1ccc(C)c(C)c1,inactive: 5.49%
13,Cc1ccc(NC(=O)Cn2c(=O)n(-c3ccccc3)c(=O)c3ccc(C(=O)NCc4ccc5c(c4)OCO5)cc32)cc1,inactive: -3.83%
14,Cc1ccc(C)c(NC(=O)c2cc(S(=O)(=O)N3CCN(c4cccc(Cl)c4)CC3)ccc2F)c1,inactive: 0.672%
15,CCN(Cc1ccccc1)C(=O)C1CCC(CNS(=O)(=O)c2ccc3c(c2)CCCC(=O)N3)CC1 (stereo not drawn),inactive: -2.9%
16,CCc1ccc(NC(=O)c2sc(-n3nc(C)c(Cc4ccc5c(c4)OCO5)c3C)nc2C)cc1,inactive: 2.8%
17,Cc1ccc2oc(C(=O)Nc3ccc(S(=O)(=O)N4CCCCCC4)cc3)cc(=O)c2c1,inactive: 4.29%
18,COc1ccccc1NC(=O)Cn1nc2c3cc(F)ccc3n(Cc3cccc(C)c3)cc-2c1=O,inactive: -0.339%
19,CCOc1ccccc1NC(=O)Cn1c(=O)n(-c2ccc(C)c(C)c2)c(=O)c2oc3ccccc3c21,inactive: 3.34%
20,O=C(Oc1ccccc1F)c1nc(SCc2ccccc2F)ncc1Cl,inactive: 4.29%
21,CCOc1ccc(CNC(=O)c2cc(=O)[nH]c3ccc(S(=O)(=O)N4CCCCC4)cc23)cc1,inactive: -3.23%
22,Cc1cc(C)cc(Nc2cc(C(=O)NCCCN(Cc3ccccc3)C(C)C)c3ccccc3n2)c1,inactive: 4.28%
23,CC(C)OCCCNC(=O)CCCn1c(=O)[nH]c2ccsc2c1=O,inactive: 6.19%
24,Cc1ccc(CNC(=O)C2CCC(CNS(=O)(=O)c3ccc4c(c3)CCCC(=O)N4)CC2)cc1 (stereo not drawn),inactive: 24.6%

row,Structure (SMILES),"activity change, negative = cytotoxicity"
1,Cc1cccc(-c2nc(CCNC(=O)c3ccco3)cs2)c1,inactive: -5.45%
2,CCOC(=O)c1ccc(NC(=O)CCS(=O)(=O)c2ccc(C)cc2)cc1,inactive: -11.8%
3,COc1ccc(N2CCN(S(=O)(=O)c3csc(C(N)=O)c3)CC2)cc1,inactive: -6.23%
4,Cc1cccc(C)c1OCCSc1nc2ccccc2n1CC(=O)O,inactive: 17.1%
5,O=C(Nc1cccc(-c2nc3ccccc3o2)c1)c1cc([N+](=O)[O-])ccc1N1CCOCC1,inactive: -14.5%
6,CC(=O)Nc1ccc(NS(=O)(=O)c2ccc3c(c2)CC(C)N3C(=O)C2CCC2)cc1 (stereo not drawn),inactive: -29.2%
7,COc1ccc(-c2nc3c4cnn(-c5ccccc5F)c4ncn3n2)cc1,inactive: 6.57%
8,COC(=O)CC1Oc2ccc(F)cc2-n2cc(-c3ccc(Cl)cc3)nc21 (stereo not drawn),inactive: 13%
9,CCOc1ccc(CNC(=O)c2ccc3c(c2)nc2n3CCOC2)cc1,inactive: 7.14%
10,CC(=O)N1CCOc2cc(S(=O)(=O)NCc3ccc(C)cc3)c(C)cc21,inactive: 5.5%
11,Cc1c(CNCc2ccc(OC(C)C)cc2)c(C(=O)O)c(C)n1Cc1ccc(Cl)cc1,inactive: 4.98%
12,COc1ccc(N(C(=O)c2ccccc2F)S(=O)(=O)c2ccc3c(c2)n(C)c(=O)n3C)cc1,inactive: -3.42%
13,COc1ccc(-c2cc(C(F)(F)F)nc(SCC(=O)N(C)Cc3ccccc3)n2)cc1OC,inactive: -30%
14,O=C(c1cc2ccc3cccnc3c2[nH]1)N1CCN(c2cccc(C(F)(F)F)c2)CC1,inactive: -3.18%
15,COc1ccc2c(c1)c1c(c(=O)n(CCc3ccccc3)c(=O)n1Cc1ccccc1)n2C,inactive: -1.36%
16,Cc1ccc(C)c2sc(NC(=O)c3ccc(S(=O)(=O)N4CCCC4)cc3)nc12,inactive: 0.511%
17,CCOC(=O)CSc1nc2sc3c(c2c(=O)n1Cc1ccccc1)CCC(C(C)(C)C)C3 (stereo not drawn),inactive: 6.95%
18,COc1ccc(CNC(=O)c2c(Nc3ccc(OC)cc3OC)sc(C(=O)c3ccc(Cl)cc3)c2N)cc1,inactive: -5.07%
19,CCN1c2ccccc2-c2nc(SCC(=O)Nc3cccc(C(F)(F)F)c3)ncc2S1(=O)=O,inactive: 2.81%
20,CCC(C)(C)NS(=O)(=O)c1cc(-c2cc(C)no2)ccc1C,inactive: -11.8%
21,COc1cc(O)ccc1C1CC(=O)Nc2c1c(=O)nc(SCc1ccccc1C)n2C (stereo not drawn),inactive: -1.63%
